Measurements as given in PubChem BioAssay AID504845 (National Center for Advancing Translational Sciences (NCATS), 2011).
In all, about 390,000 compounds went through this assay and about 150 (0.038%) were called active. This list was built around the results that the source calls inconclusive (neither active nor inactive); the mix of calls is not that of the screen. Calls come from the whole dose curve; as a rule, active = well fitted inhibition curve with a large enough effect; inconclusive = small, poorly fitted or top-dose-only effect; inactive = no such curve, though single readings can be large or run the other way. A potency beside an inconclusive call is a rough fit, not a confirmed value.
% is set by controls: 0 for no effect and ±100 for the full control effect; potency is the fitted concentration of half-maximal effect; tags give direction and shape of the fitted curve.
Note: nearly all actives have a fitted effect of over 75% in size.

These compounds were tested against Regulator of G-protein signaling 4 (Homo sapiens) (UniProt P49798) (assay: Inhibitors of Regulator of G Protein Signaling (RGS) 4: qHTS). Conditions: Transcreener GDP fluorescence polarization, RGS4-accelerated GTP hydrolysis; series mostly up to 114 µM; activity change, negative = inhibition: at the top concentration.
Sequence of UniProt P49798 (P49798 whole entry, looked up): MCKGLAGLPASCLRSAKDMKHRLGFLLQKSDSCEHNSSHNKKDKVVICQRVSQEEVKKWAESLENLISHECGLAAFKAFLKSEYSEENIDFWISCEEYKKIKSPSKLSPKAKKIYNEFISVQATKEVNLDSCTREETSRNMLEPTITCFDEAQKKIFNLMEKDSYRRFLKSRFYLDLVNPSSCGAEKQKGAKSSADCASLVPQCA
Method in brief: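 MLSMR compounds (23 nl, pin-transferred) preincubated 10 min at room temperature with a 500nM (2x) first reagent, then RGS4 at 900nM (2x) plus Transcreener GDP mix added; fluorescence polarization (620/688 nm) read before and after 90 min at 30 °C.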
With `Cc1cc(C)cc(C(=O)NN2CCN(C)CC2)c1` the Potency was inconclusive: 50.1 µM [inhibitor, partial curve, poor fit]. `O=C1C(=C(I)I)c2ccccc2-c2ccccc21` was tested, and the Potency was inconclusive: 28.2 µM [inhibitor, full curve, poor fit]. `O=C(/C=C/c1cccc2ccccc12)c1ccncc1` was tested, and the Potency was inconclusive: 89.1 µM [inhibitor, partial curve, poor fit]. `Cc1ccc(S(=O)(=O)/N=C(\c2ccccc2)N(C)S(=O)(=O)c2ccccc2)cc1` was tested, and the Potency was inconclusive: 100 µM [inhibitor, partial curve, poor fit]. For `CCC1CCc2c(sc(NC(=O)c3cnccn3)c2C(N)=O)C1` (configuration not stated), the Potency was inconclusive: 89.1 µM [inhibitor, partial curve, poor fit]. `O=C(Nc1nnc(SCCC2OCCO2)s1)C1CC(=O)N(c2ccc(F)cc2)C1` (configuration not stated) was tested, and the Potency was inconclusive: 70.8 µM [inhibitor, partial curve, poor fit]. In the case of `Cc1ccc(N(Cc2cc3ccc(C)cc3[nH]c2=O)C(=O)c2ccco2)c(C)c1`, the Potency is reported as inconclusive: 50.1 µM [inhibitor, partial curve, poor fit]. With `CCCn1c(CN2CCN(C(=O)OCC)CC2)nc2cc([N+](=O)[O-])ccc21` the Potency was inconclusive: 89.1 µM [inhibitor, single point]. With `O=C(c1cncc(Br)c1)N1CCN(S(=O)(=O)c2ccccc2C(F)(F)F)CC1` the Potency was inconclusive: 50.1 µM [inhibitor, partial curve, poor fit]. In the case of `COc1ccc(C(=O)Nc2ccc(-c3nnn(CC(=O)N4CCN(C(=O)c5ccco5)CC4)n3)cc2)cc1`, the Potency is reported as inconclusive: 79.4 µM [inhibitor, partial curve, poor fit]. For `COc1ccc(Cc2nc3ccccc3n2CC(=O)N/N=C/c2ccc(C)cc2O)cc1OC`, the Potency was inconclusive: 50.1 µM [inhibitor, partial curve, poor fit]. With `COc1ccc(Nc2nc3ccccc3n3c(N)nnc23)cc1` the “activity change, negative = inhibition” value was inactive: 11.8%. With `COc1ccc(NC(=O)NNC(=O)COc2ccc3cc(Br)ccc3c2)cc1OC` the Potency was inconclusive: 56.2 µM [inhibitor, partial curve, poor fit]. `CCn1c(=O)c([N+](=O)[O-])c(Cl)c2ccccc21` was tested, and the Potency was inconclusive: 89.1 µM [inhibitor, single point]. With `Cc1cc(C)c2nc(N3CCCN(C(=O)c4ccco4)CC3)c(C#N)cc2c1` the Potency was inconclusive: 79.4 µM [inhibitor, partial curve, poor fit]. In the case of `COC(=O)c1cc(-c2ccccc2)sc1N`, the Potency is reported as inconclusive: 50.1 µM [inhibitor, partial curve, poor fit]. In the case of `CCC(C)OC(=O)/C(C#N)=C/c1ccc(-c2ccc(Br)cc2)o1` (configuration not stated), the “activity change, negative = inhibition” value is reported as inactive: -6.92%. For `O=C(CSc1nc(N2CCCCC2)nc(N2CCCCC2)n1)N1CCN(c2ccccc2)CC1`, the “activity change, negative = inhibition” value was inactive: -6.09%. With `C/C(O)=C(/C#N)c1nc2ccccc2[nH]1` the “activity change, negative = inhibition” value was inactive: 25.6%. With `Cc1cccc(N(Cc2ccccc2)C(=O)Cc2ccc(S(=O)(=O)N3CCOCC3)s2)c1` the “activity change, negative = inhibition” value was inactive: -7.82%. For `CCOc1cc(C(=O)NC(=S)Nn2cnnc2)cc(OCC)c1OCC`, the Potency was inconclusive: 79.4 µM [inhibitor, partial curve, poor fit]. With `O=C(Cc1ccc(-c2ccccc2)cc1)NCCS(=O)(=O)N1CCN(c2ccccc2F)CC1` the “activity change, negative = inhibition” value was inactive: -47.5%. In the case of `O=C(C1CCCN(Cc2ccccc2F)C1)N1CCCCC1` (configuration not stated), the “activity change, negative = inhibition” value is reported as inactive: -17.2%. In the case of `Cc1ccc(NC(=O)COC(=O)c2csc3c2CCC(C)C3)cc1S(=O)(=O)N1CCCCC1` (configuration not stated), the “activity change, negative = inhibition” value is reported as inactive: 6.36%. With `O=C(O)c1ccc(NN=CC2=C(N3CCOCC3)/C(=C/c3ccccc3)CC2)cc1` the Potency was inconclusive: 79.4 µM [inhibitor, partial curve, poor fit]. `C#CCOCCOCCOCCNc1nc(N2CCN(C(=O)C(Cc3cc4ccccc4[nH]3)n3cc(C(N)Cc4ccc(O)cc4)nn3)CC2)nc(N2CCN(C(=O)C(Cc3cc4ccccc4[nH]3)n3cc(C(N)Cc4ccc(O)cc4)nn3)CC2)n1` (configuration not stated) was tested, and the Potency was inconclusive: 28.2 µM [inhibitor, full curve, poor fit]. `COc1cc(SC)ccc1C(=O)Nc1ccc2ncccc2c1` was tested, and the Potency was inconclusive: 31.6 µM [inhibitor, full curve, poor fit]. With `COc1cccc2cc(C(=O)Nc3ccc(C)cc3)c(=O)oc12` the “activity change, negative = inhibition” value was inactive: -0.778%. In the case of `CCOC(=O)C1=C(N)Oc2cc(O)ccc2C1c1cccc([N+](=O)[O-])c1` (configuration not stated), the “activity change, negative = inhibition” value is reported as inactive: -32.6%. For `O=c1c2ccccc2cnn1-c1nc2ccccc2[nH]1`, the activity change, negative = inhibition was inactive: 2.52% [at 11.4 µM]. With `Cc1ccc(NC(=O)CCCn2nc(C)c3c(C)n(-c4ccccc4)nc3c2=O)c(Cl)c1` the Potency was “inactive”. For `Cc1ccc(NC(=O)C2CCCN(S(=O)(=O)c3cccs3)C2)c(C)c1` (configuration not stated), the “activity change, negative = inhibition” value was inactive: -7.64%. With `N#Cc1ccc(-c2csc(NC(=O)c3ccc(S(=O)(=O)N4CCc5ccccc5C4)cc3)n2)cc1` the Potency was inconclusive: 100 µM [inhibitor, single point]. `COc1cc(CNc2cccc3[nH]c(C(F)(F)F)nc23)cc(OC)c1` was tested, and the Potency was inconclusive: 28.2 µM [inhibitor, partial curve, poor fit]. In the case of `CCN(CC)S(=O)(=O)c1cc(NC(=O)c2ccc(Br)s2)ccc1C`, the Potency is reported as inconclusive: 35.5 µM [inhibitor, full curve, poor fit]. With `O=C(CSc1nc(O)c(C2CCCCC2)c(=O)[nH]1)Nc1ccc(Cl)cc1` the Potency was inconclusive: 89.1 µM [inhibitor, single point]. With `O=C(NC1CCCC1)C(c1ccccc1)N(C(=O)c1csnn1)c1ccccc1F` (configuration not stated) the “activity change, negative = inhibition” value was inactive: -7.78%. With `COC(=O)C1=C(C)N(CCc2ccc(OC)c(OC)c2)C(=O)/C1=C\N(C)C` the Potency was inconclusive: 100 µM [inhibitor, partial curve, poor fit]. `COc1cc(/C=C/c2ccc3cccc(OC)c3n2)c(OC(C)=O)c([N+](=O)[O-])c1` was tested, and the “activity change, negative = inhibition” value was inactive: -6.46%. In the case of `Cc1cccc(NC(=O)COc2cccc3c2CCN(C)C3=O)c1C`, the “activity change, negative = inhibition” value is reported as inactive: 7.24%. For `CCc1ccccc1NC(=O)c1sc2nc(C)cc(C)c2c1N`, the Potency was inconclusive: 44.7 µM [inhibitor, partial curve, poor fit]. In the case of `O=C(c1cc(Br)c(Br)s1)N1CCOCC1`, the “activity change, negative = inhibition” value is reported as inactive: -10.2%. `Cc1ccc(NC(=O)c2c(C)oc3ccc(O)c(CN4CCN(Cc5ccccc5)CC4)c23)cc1` was tested, and the “activity change, negative = inhibition” value was inactive: 5.98%. `O=C(CNc1ccc(F)cc1)N/N=C1\CCCc2ccccc21` was tested, and the Potency was inconclusive: 70.8 µM [inhibitor, single point]. For `CN(CC(=O)Nc1ccc(Cl)cc1)C(=O)c1ccc(COc2ccccc2)cc1`, the Potency was inconclusive: 100 µM [inhibitor, single point]. With `CNC(=O)c1cc2ccc(OC)cc2oc1=O` the “activity change, negative = inhibition” value was inactive: 26.5%. `Cc1nc2c([N+](=O)[O-])c(C)c(C)cc2[nH]1` was tested, and the Potency was inconclusive: 39.8 µM [inhibitor, partial curve, poor fit]. In the case of `COc1ccc(/C(N)=N/OC(=O)Oc2ccccc2)cc1OC`, the Potency is reported as inconclusive: 79.4 µM [inhibitor, single point]. In the case of `Cc1cccc(OCCn2c(=S)[nH]c3ccccc32)c1`, the Potency is reported as inconclusive: 25.1 µM [inhibitor, full curve, poor fit]. For `CC(=O)Nc1ccc(Nc2nc(-c3c(C)nc4ccccn34)cs2)cc1`, the Potency was inconclusive: 89.1 µM [inhibitor, single point]. For `COc1cc(C2c3c([nH]c(=O)[nH]c3=O)Nc3ccc4ccccc4c32)cc(OC)c1OC` (configuration not stated), the Potency was inconclusive: 39.8 µM [inhibitor, partial curve, poor fit]. With `C=CCNCCOc1ccc(C)cc1[N+](=O)[O-]` the “activity change, negative = inhibition” value was inactive: 4.67%. In the case of `Cc1nn2c(=O)cc(COc3ccc(/C=C(\C#N)C(=O)Nc4ccccc4C)cc3)nc2s1`, the Potency is reported as inconclusive: 112 µM [inhibitor, partial curve, poor fit]. For `COc1ccc(NC(C)=[N+](C)CCNS(=O)(=O)c2ccc(Cl)cc2)cc1Cl`, the “activity change, negative = inhibition” value was inactive: -20.4%. For `S=C(NCCc1ccccc1)N1CCN(C2CCCCC2)CC1`, the “activity change, negative = inhibition” value was inactive: -19.5%. For `CC1=NN(Cc2ccccc2)C(=O)C1C(c1ccc(Cl)cc1)C(C#N)C#N` (configuration not stated), the Potency was inconclusive: 28.2 µM [inhibitor, full curve, poor fit]. In the case of `CC(C)Cc1ccc(C(C)C(N)=Nc2ccc(O)cc2)cc1` (configuration not stated), the “activity change, negative = inhibition” value is reported as inactive: 10.2%. With `O=C1ON=C(c2ccc(Cl)cc2)/C1=C/c1ccc(O)cc1` the Potency was inconclusive: 17.8 µM [inhibitor, full curve, poor fit]. In the case of `O=S(=O)(/N=C/c1c(O)ccc2ccccc12)c1ccccc1`, the Potency is reported as inconclusive: 79.4 µM [inhibitor, partial curve, poor fit]. For `Cc1cccc(C(=O)NCCc2nc3ccccc3n2CCC(C)C)c1`, the “activity change, negative = inhibition” value was inactive: -3.3%. In the case of `Clc1ccc(C2Nc3cccc4cccc(c34)N2)cc1Cl`, the Potency is reported as inconclusive: 28.2 µM [inhibitor, full curve, poor fit]. In the case of `O=C(CSc1ncn[nH]1)c1ccccc1`, the Potency is reported as inconclusive: 20 µM [inhibitor, full curve, poor fit]. For `N#CC1=C(N)Oc2c(ccc3cccnc23)C1c1ccccc1` (configuration not stated), the “activity change, negative = inhibition” value was inactive: 15.2%. For `CN(C(=O)Nc1ccc(Cl)cc1Cl)[C@H]1c2cc(Br)ccc2OC[C@H]1CO`, the “activity change, negative = inhibition” value was inactive: 5.19%. `O=C(COc1ccccc1[N+](=O)[O-])Nc1ccc(NC(=O)c2cc3ccccc3o2)cc1` was tested, and the Potency was inconclusive: 31.6 µM [inhibitor, full curve, poor fit]. With `Cc1cccc(-n2c(O)c(C=Nc3ccccc3)c3ccccc3c2=O)n1` the Potency was inconclusive: 35.5 µM [inhibitor, full curve, poor fit]. `C=CCNC(=O)c1cc(Cl)cc(Cl)c1` was tested, and the Potency was inconclusive: 17.8 µM [inhibitor, full curve, poor fit].
